Assay results from PubChem BioAssay AID1347043 (National Center for Advancing Translational Sciences (NCATS), 2019).
About 1,900 (2.5%) of roughly 76,000 compounds were called active. Inconclusive results, whose numbers are uncertain, are shown with a selection of clear calls. Calls follow the shape of the dose curve; as a rule, active = well fitted inhibition curve with a large enough effect; inconclusive = small, poorly fitted or top-dose-only effect; inactive = flat fitted curve, though single readings scatter. Potencies of inconclusive entries are doubtful fits and often do not repeat.

Biological target: Luciferin 4-monooxygenase (Photinus pyralis) (UniProt P08659)
Test: Firefly luciferase inhibition profiling of diverse chemical library using quantitative high-throughput screening; also: nearly all actives have a fitted effect of over 65% in size
Details: purified P. pyralis luciferase, luminescence, biochemical; series mostly up to 115 µM
In short: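 Cell-free enzyme assay, 10nM P. pyralis luciferase, luciferin and ATP each at 10uM. Inhibition profiled over a 6-point titration, read as luminescence.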
Potency is read from the fitted curve at half-maximal effect; tags tell the direction and shape of the fitted curve.

UniProt P08659, sequence (P08659 whole entry, looked up): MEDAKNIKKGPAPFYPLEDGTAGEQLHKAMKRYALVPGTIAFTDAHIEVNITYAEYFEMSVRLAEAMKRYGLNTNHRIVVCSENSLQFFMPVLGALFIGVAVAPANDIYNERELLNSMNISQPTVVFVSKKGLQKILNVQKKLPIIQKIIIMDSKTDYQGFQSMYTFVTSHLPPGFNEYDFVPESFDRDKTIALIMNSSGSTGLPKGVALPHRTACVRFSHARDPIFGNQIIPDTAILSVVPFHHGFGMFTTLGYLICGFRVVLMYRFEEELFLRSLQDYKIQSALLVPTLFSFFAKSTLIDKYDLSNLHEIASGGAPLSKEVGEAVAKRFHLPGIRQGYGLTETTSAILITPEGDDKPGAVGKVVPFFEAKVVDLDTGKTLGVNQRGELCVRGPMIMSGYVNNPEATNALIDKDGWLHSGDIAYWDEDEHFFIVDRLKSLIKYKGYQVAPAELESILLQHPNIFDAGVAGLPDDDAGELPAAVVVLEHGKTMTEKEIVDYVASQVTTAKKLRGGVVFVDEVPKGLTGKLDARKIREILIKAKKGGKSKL

Structure (SMILES)	Potency
FC(F)(F)c1cccc(C2=NOC3(CCN(Cc4ccccc4)CC3)C2)c1	inactive
Cc1ccc(-c2noc([C@@H]3C[C@@H](O)CN3Cc3cccnc3)n2)cc1F	inconclusive: 70.8 µM [inhibitor, full curve, poor fit]
OC1CC(c2cc(N3CCC(CCn4cccn4)CC3)ncn2)C1 (stereo not drawn)	inactive
COc1ccc(C(=O)NC2CCCN(c3cc(-c4ccc(F)cc4)[nH]n3)C2)cc1F (stereo not drawn)	inconclusive: 6.31 µM [inhibitor, full curve, poor fit]
COc1cc(=O)n2c(c1C(=O)Nc1ccc(C)cc1)CCCC2	inactive
CCCNc1cc(N2CCC(CCC(=O)N3CCN(c4ccccc4F)CC3)CC2)ncn1	inconclusive: 44.7 µM [inhibitor, partial curve]
COc1cccc(CN2Cc3c(CNc4cccc(C(F)(F)F)c4)nnn3CCC2=O)c1	inactive
CCC(=O)Nc1ccc2nnc(-c3ccc(C(=O)Nc4ccc5c(c4)OCCO5)cc3)n2c1	active: 14.1 µM
Cc1ccc2nc(COCC(=O)N3CCn4nc(CO)cc4C3)[nH]c2c1	inactive
COC(=O)CNC(=O)N1CCc2c(nc3cc(-c4ccccc4Cl)[nH]n3c2=O)C1	inconclusive: 39.8 µM [inhibitor, partial curve]
O=C(c1ccccc1)N1CCCC(n2cc(-c3nc(-c4ccccc4)no3)nn2)C1 (stereo not drawn)	inconclusive: 63.1 µM [inhibitor, partial curve, poor fit]
CCCCN(C)C(=O)c1cc(-c2ccc(C)cc2)cn1CC	inactive
CN(Cc1cc(C2CC2)n[nH]1)c1nccc(-c2cccnc2)n1	inconclusive: 50.1 µM [inhibitor, partial curve]
CCc1c(C)cc(C(=O)N[C@H]2CCOC[C@H]2C2CCOCC2)c(=O)n1C	inactive
COc1ccc(C(=O)N2CCCC(c3nc(-c4ccccc4)no3)CCNC(=O)CC2)c(OC)n1 (stereo not drawn)	active: 7.94 µM
Cc1ccc(C(=O)N2CCN(c3cc(C(F)(F)F)ncn3)CC2)c(C)c1	inactive
COCCCN(CCC(=O)NCCC(C)C)C(=O)c1cc(C)oc1C	inactive
CCc1noc(-c2nc(-c3ccc(F)c(F)c3)no2)n1	inconclusive: 56.2 µM [inhibitor, partial curve]
CCOc1cc(=O)n2c(c1C(=O)NCc1cccc(F)c1)CCCCC2	inactive
Cc1nn(-c2cccc(Br)c2)c(C)c1[C@@H]1C=C[C@@H](NC(=O)CC2(CC(=O)O)CCCC2)C1	inconclusive: 50.1 µM [inhibitor, partial curve]
O=C1CCN(S(=O)(=O)c2ccccc2)CCCN(C(=O)c2c[nH]c3ccccc23)CCN1	inconclusive: 39.8 µM [inhibitor, partial curve, poor fit]
c1cnc2nc(-c3ccsc3)[nH]c2c1	inconclusive: 126 µM [inhibitor, partial curve]
CCOCCOC1CCN(C(=O)c2cc3ccccc3[nH]2)CC1	inconclusive: 25.1 µM [inhibitor, full curve, poor fit]

Structure (SMILES)	Potency
CCc1ccc(NC(=O)c2ccc3c(c2)N(CC)C2CCCCN2C3=O)cc1 (stereo not drawn)	inconclusive: 35.5 µM [inhibitor, full curve, poor fit]
O=C(c1ccccc1)N1CCCn2cc(-c3ccc4c(c3)OCO4)nc21	inconclusive: 39.8 µM [inhibitor, partial curve]
Cc1ccc(NC(=O)NCCc2ncc(C)n2CC2CC2)cc1C	inactive
COc1ccc(Cl)cc1NC(=O)CCC1CCCN(Cc2ccc(C)s2)C1 (stereo not drawn)	inactive
CC(=O)N1c2ccccc2CC1c1nc(C(C)C)no1 (stereo not drawn)	inconclusive: 39.8 µM [inhibitor, partial curve]
O=C(c1ccccn1)N1CCC2(CC1)NC(=O)N(Cc1ccc(F)cc1)C2=O	inactive
C1CNC(c2nc(CCOCC3CC3)no2)C1 (stereo not drawn)	inactive
O=C(Cc1c[nH]c2ncc(-c3ccccc3)cc12)N1CCN(c2ccccn2)CC1	inconclusive: 63.1 µM [inhibitor, full curve, poor fit]
Cn1nc(C(=O)N2CCc3nn(CC4CC4)c(=O)n3CC2)c2ccccc21	inconclusive: 44.7 µM [inhibitor, partial curve]
Cc1ccccc1C(=O)NC1CCCN(c2cc(-c3ccccc3)[nH]n2)C1 (stereo not drawn)	inconclusive: 39.8 µM [inhibitor, partial curve]
O=C(c1cc(-c2ccccc2)nc2ccccc12)N1CCc2c(nc[nH]c2=O)C1	inconclusive: 22.4 µM [inhibitor, full curve]
COCC(=O)N1CC(Oc2ccc(-c3noc(-c4ccncc4)n3)cc2)C1	inconclusive: 44.7 µM [inhibitor, partial curve, poor fit]
COc1ccc(-c2cc(N3CCC(NC(=O)c4cccc(Br)c4)C3)n[nH]2)cc1 (stereo not drawn)	inactive
CCc1ccc(NC(=O)C2CCN(C(=O)c3ncn4c3COC(c3ccc(F)cc3)C4)CC2)cc1 (stereo not drawn)	inconclusive: 44.7 µM [inhibitor, partial curve]
Cc1cc(=O)n(CC(=O)Nc2ccc(F)c(Cl)c2)c(N(C)Cc2ccccc2)n1	inactive
COc1cc2c(cc1OC)C(CNC(=O)c1ccc(C)cc1)N(C(=O)Nc1ccccc1F)CC2 (stereo not drawn)	inactive
COc1ccc(NC(=O)N2CC(Oc3ccc(-c4nc(-c5ccccc5)no4)cc3)C2)cc1	active: 1.41 µM
O=C(Cn1ccn2nc(-c3ccccc3)c(CO)c2c1=O)N1CCN(c2ccccc2F)CC1	inconclusive: 50.1 µM [inhibitor, partial curve, poor fit]
COc1ccc(-c2noc(C(=O)NC3CCC3)c2[C@H](C)O)cc1	inconclusive: 44.7 µM [inhibitor, partial curve]
COc1ccc(C(=O)N2CCC3(CC2)N=C(c2ccc(C)cc2)NO3)cc1F	inconclusive: 39.8 µM [inhibitor, partial curve]
CC1CCN(C(=O)c2ccc(-c3ccc(N4CCSCC4)nc3)cc2)CC1	inconclusive: 44.7 µM [inhibitor, partial curve]
Cc1ccc(C2=NC3(CCN(C(=O)c4ccc(C)c(C)c4)CC3)ON2)cc1	inconclusive: 39.8 µM [inhibitor, partial curve]
O=C(Nc1ccc(F)cc1)c1ccc2ccnn2c1	inconclusive: 44.7 µM [inhibitor, partial curve]

Structure (SMILES)	Potency
COc1ccc(Cn2c3c(c(=O)n2Cc2ccccc2)CCN(CC2CCOC2)C3)cc1 (stereo not drawn)	inactive
O=C(CCCc1ccccc1)NCCC1CCN(C(=O)Nc2cc(F)cc(F)c2)CC1	inconclusive: 44.7 µM [inhibitor, partial curve]
COC(=O)c1cn([C@H]2CO[C@H]3[C@@H]2OC[C@@H]3NC(=O)NCc2ccccc2)nn1	inconclusive: 44.7 µM [inhibitor, partial curve]
CCC(C)(C)C(=O)NCCc1noc(-c2ccccc2)n1	inconclusive: 50.1 µM [inhibitor, partial curve]
Cc1ccc(C2Cn3cnc(C(=O)N4CCC(C(=O)NCc5ccc(F)cc5F)CC4)c3CO2)cc1 (stereo not drawn)	inconclusive: 39.8 µM [inhibitor, partial curve]
Cc1ccc(C(=O)N2CCCn3cc(-c4cccc(C#N)c4)nc32)cc1	inconclusive: 44.7 µM [inhibitor, partial curve]
CCn1ncc(NC(=O)Cn2ncc3cc(-c4cccc(OC)c4)ccc32)n1	inconclusive: 39.8 µM [inhibitor, partial curve]
COCCOC1CCN(C(=O)c2[nH]nc3c2COc2ccccc2-3)CC1	inconclusive: 35.5 µM [inhibitor, partial curve]
CSCc1nc(-c2ccncc2)nn1Cc1ccc2c(c1)OCO2	active: 4.47 µM
C[C@H]1CN(C(=O)CCCc2ccccc2)C[C@@H]1c1nc(-c2ccccc2)no1	inconclusive: 44.7 µM [inhibitor, partial curve]
COc1ccc(N2CCN(c3nc(C(=O)N4CCC(C)CC4)cs3)CC2)cc1	inconclusive: 39.8 µM [inhibitor, partial curve]
COc1ccc(NC(=O)c2cc(-c3ccc[nH]3)n[nH]2)cc1OC	inconclusive: 50.1 µM [inhibitor, partial curve]
CN1CCC(N2CC[C@H](c3nc4ccccc4[nH]3)C2)CC1	active: 70.8 µM
CCNC(=O)N[C@@H]1C=C[C@@H](c2c(C)nn(-c3ccc(F)cc3)c2C)C1	active: 6.31 µM
O=C(c1ccccc1F)N1CC(Oc2cccc(-c3nc(-c4ccccc4)no3)c2)C1	inconclusive: 12.6 µM [inhibitor, full curve]
COc1ccc(CCC(=O)N2CCC(Cc3nc(-c4ccc(F)cc4)no3)CC2)cc1	inactive
O=C(NCc1ccc(F)c(F)c1)C1CCC(=O)N(CC2CCCCC2)C1 (stereo not drawn)	inconclusive: 56.2 µM [inhibitor, partial curve, poor fit]
Cn1c(C(=O)N2CCC(N3CCCCC3)CC2)cc2c1CCN(Cc1cccc(F)c1)C2	inactive
Cc1ccc(-c2ncc(NC(=O)c3ccccc3C(F)(F)F)cn2)cc1	inconclusive: 2.82 µM [inhibitor, full curve]
O=C(NCc1ccccc1)C1CCN(C(=O)c2ncn3c2COC(c2ccc(Cl)cc2)C3)CC1 (stereo not drawn)	inconclusive: 44.7 µM [inhibitor, partial curve]
CCn1cnnc1CC1CCN(C(=O)c2ccc(OC)cc2)C1 (stereo not drawn)	inconclusive: 50.1 µM [inhibitor, partial curve]
COc1ccc(NC(=O)NCC2CCOCC2)cc1F	inactive
